Over roughly 33,000 sequences, “E-score (-0.5 to 0.5)” has its median near -0.011; the highest 2% begin near 0.28. The list shows a part of the results.
Target: T1, Gcr1 (UniProt P07261)
T1 sequence: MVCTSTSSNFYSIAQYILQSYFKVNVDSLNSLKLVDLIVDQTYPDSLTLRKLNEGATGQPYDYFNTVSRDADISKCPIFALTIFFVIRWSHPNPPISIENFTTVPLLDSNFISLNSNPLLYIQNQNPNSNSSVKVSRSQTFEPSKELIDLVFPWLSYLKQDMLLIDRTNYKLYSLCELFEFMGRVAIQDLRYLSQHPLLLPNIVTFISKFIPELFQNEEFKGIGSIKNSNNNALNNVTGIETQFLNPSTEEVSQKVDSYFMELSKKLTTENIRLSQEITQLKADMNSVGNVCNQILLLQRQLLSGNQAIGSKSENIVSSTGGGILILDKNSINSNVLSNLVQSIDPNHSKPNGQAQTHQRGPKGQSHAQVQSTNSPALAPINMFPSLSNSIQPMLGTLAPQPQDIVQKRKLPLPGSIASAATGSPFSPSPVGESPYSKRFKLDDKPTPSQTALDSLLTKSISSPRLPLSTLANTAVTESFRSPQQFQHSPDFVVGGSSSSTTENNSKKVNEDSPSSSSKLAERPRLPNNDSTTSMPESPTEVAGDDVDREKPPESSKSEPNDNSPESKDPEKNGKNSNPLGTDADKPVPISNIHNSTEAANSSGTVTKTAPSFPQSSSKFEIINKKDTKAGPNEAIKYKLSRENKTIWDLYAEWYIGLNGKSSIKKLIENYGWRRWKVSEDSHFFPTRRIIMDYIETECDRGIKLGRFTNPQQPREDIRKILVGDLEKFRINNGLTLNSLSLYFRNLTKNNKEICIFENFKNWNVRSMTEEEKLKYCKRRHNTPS
Assay: PBM E-score (8-mer binding enrichment) (E-score (-0.5 to 0.5)); higher = stronger / more preferred TF binding; most listed sequences are background and not binding sites
Settings: protein concentration: 100 nM; construct: GST-full length
Outline: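 Using PURExpress in vitro transcription/translation, GST-tagged yeast transcription factors were made in full-length or DNA-binding-domain form. These were applied at about 100-200 nM to double-stranded universal all-10-mer Agilent arrays, and bound protein was detected with fluorescent anti-GST. Scans were normalised with masliner before the Universal PBM Analysis Suite assigned E-scores to ungapped eight-base words pooled with their reverse complements.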

Sequence	PBM E-score
TCGTTGCA	-0.108
CACAGGCG	-0.00662
AAGCCAAT	0.0759
TAACAAAA	0.063
GCAGATGC	-0.0735
GTCCGCCA	-0.0551
TTGCTAAA	-0.164
AATGCTTG	-0.143
AGCAGTTG	-0.00851
AAACGTGA	-0.0568
GCTCCCAA	0.0938
ACTGGTAA	0.0902
GCTCGCCA	-0.0132
CATTTCAG	-0.0103
GCCGCAGA	-0.0297
GATACGAA	0.156
ACAGTACG	-0.074
ACCCGGCA	0.125
GACGCCGC	0.37
CCGCAATA	0.00375
CAACAAAG	-0.114
ACTCTATC	-0.12

Sequence	PBM E-score
GGTGCTTA	0.259
ATACGTTC	-0.246
CAAATCGA	-0.0882
AAGGTGGC	-0.0205
CTATGAAG	-0.0783
GCGTGAAC	0.00311
CGTACGAG	-0.103
CGTTTGAA	-0.0917
ATCGGGCG	0.0155
CGATGAGC	-0.248
AATAGTAC	-0.149
ATGCGCAT	-0.0285
CGGCGCAC	-0.178
CCGAATGA	-0.0709
AGCCTCAC	0.0143
ACGGGGGG	-0.182
AATATTCC	0.131
AATGAACC	-0.134
ACCACCGT	-0.0184
ATCTCCTC	0.0889
CTACGCTC	-0.213
AGTAGGGA	0.123

Sequence	PBM E-score
GCTCTGTA	-0.00944
AGTAAAAA	0.0466
AAGGGTTA	-0.133
AAATAATT	0.101
GCGCCCCC	0.258
CCGTCGAG	-0.149
ATTTTGCG	0.074
ATGTTTAA	-0.129
AGAGAACG	-0.111
ATACTGTC	-0.136
CTCCTGCA	0.0118
AGGCGCGC	0.16
AGAAGTCA	0.241
CGTGCCAC	-0.141
GCTTTCAA	0.152
CGTGTTAA	-0.033
GGCACACA	-0.078
CATCCGAG	-0.0298
CGGCTACG	-0.0174
ACAAAGGG	-0.176
GAGTCTAA	-0.123
CGACAGAA	0.0495

Sequence	PBM E-score
AGCGTGGA	-0.0942
GGGGTAAC	-0.00738
CGGTTCAA	-0.14
GGAGCTCA	-0.0475
ACAGGCTC	-0.0762
ATTGCTAG	-0.207
AACATCGA	-0.224
AGTCCTTA	0.0231
CCGTTAAA	-0.127
CTCAGAAC	0.107
CACAGCCG	-0.114
GCCAGGGA	-0.11
ATCACAAA	0.131
GACGCTGC	0.332
GCCAATGA	-0.11
AGTTACCC	0.0602
CTACCAAC	-0.0781
CTTACCGC	-0.176
AGACGCAG	0.0695
ACTCAACA	0.122
GGACCGCA	0.0179
CGTGAGGA	0.0116

Sequence	PBM E-score
ACCCTAGA	-0.00655
CAGTTTTA	-0.00954
ACTAAAGA	0.072
CGACGTAG	-0.171
GCTTATCC	-0.114
CAATTCGA	0.0308
ATGTACAG	-0.0683
CTTCAAAG	0.0604
ATCAGGAT	0.146
CAGTCCAC	-0.25
CCAGGTAG	-0.129
CCAAAGGA	0.152
ACATCAAA	0.0265
ACAACCCT	-0.127
ATTTGAAA	0.114
ACCGTACG	-0.0822
GGATCGAC	-0.219
AGAATTTC	0.00643
ATCCGGTA	-0.00288
ATCCGGAT	0.286
AGAGATGC	-0.0199
ATGTCCAG	0.00743

— the supplement of paper PMC3334620
